Reference: the supplement of paper PMC9334596
“And” between values parts separate entries of the source, which are not always exact repeats. Equal values may be shown once. The full ranking holds about 5,300 compounds; the median of “PER2::LUC luminescence relative to vehicle control” is about 0.96, and the highest 2% start at about 1.3. This is one part of the list.

System: mPer2Luc MEF
Test: PER2::LUC luminescence relative to vehicle control (fold of vehicle); higher = higher PER2::LUC reporter signal
Details: 10 µM
In short: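 In 384-well plates, ~3000 mPer2Luc reporter mouse embryonic fibroblasts per well were cultured in DMEM with 10% FBS at 37 °C and 5% CO2 for 48 h before compounds from commercial libraries were added at 10 μM. ONE-Glo luciferase readings were taken 24 h and 30 h after treatment. Each value is PER2::LUC luminescence given as fold of vehicle control.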

SMILES	PER2::LUC luminescence (time after treatment 24 h)	PER2::LUC luminescence (time after treatment 30 h)
NC(=O)[C@@H]1CCCN1C(=O)[C@H](Cc1cnc[nH]1)NC(=O)[C@@H]1CCC(=O)N1	1.13	1.22
NC1=N[C@@]2(c3cc(NC(=O)c4ccc(F)cn4)ccc3F)COC[C@H]2CS1	0.905	0.926
COc1cc2ncnc(Nc3cccc(O)c3)c2cc1OC	0.659	0.697
Nc1nc(=O)c2c([nH]1)NCC(CNc1ccc(C(=O)N[C@@H](CCC(=O)O)C(=O)O)cc1)=N2	1.06	0.985
COC(=O)Nc1nc2cc(C(=O)c3ccc(F)cc3)ccc2[nH]1	1.16	0.954
COc1ccc(CC(=O)c2ccc(O)cc2O)cc1	1.63	1.51
CC(=O)O[C@H]1Cc2ccccc2N(C(N)=O)c2ccccc21	1.12	0.914
CCOC(=O)c1ccc(O)cc1	1.06 and 0.859	1.02 and 0.79
CCOC(=O)CCN(C(=O)c1ccc2c(c1)nc(CNc1ccc(C(=N)N)cc1)n2C)c1ccccn1	1.05	0.998
COc1ccccc1N1CCN(CCN2C(=O)N=C3C(=Nc4ccccc43)C2=O)CC1	0.831	0.823
Nn1cc(Br)c(=O)[nH]c1=O	0.972	0.954
[N-]=[N+]=Nc1ccc(C(=O)CSC[C@H](NC(=O)CC[C@H](N)C(=O)O)C(=O)NCC(=O)O)cc1	1.02	0.976
CCN1CCN(c2cc(-c3ccc(F)cc3)c3c(n2)CCCCCC3)CC1	0.89	0.829
O=C(O)c1ccc(S(=O)(=O)N(Cc2ccc(OC(F)(F)F)cc2)c2ncc(C(F)(F)F)cc2Cl)cc1	0.814	0.911
O=C([O-])C(O)[C@H](O)[C@@H](O)[C@H](O)[C@H](O)CO.O=C([O-])C(O)[C@H](O)[C@@H](O)[C@H](O)[C@H](O)CO.[Ca+2] (stereo partly specified)	0.911	0.936
O=C(/C=C/c1ccccc1)c1ccc(O)cc1O	1.21	1.43
Cc1c(OCC(F)(F)F)ccnc1C[S+]([O-])c1nc2ccccc2[nH]1 (stereo unspecified)	1.17	1.67
Cn1c(=O)c2c(ncn2C)n(C)c1=O	0.866	0.985
CCCCCCCC/C=C\CCCCCCCC(=O)O	1.14	1.15
Fc1ccc(CNc2ncnc3ccc(F)cc23)cc1	0.45	0.344
CCS(=O)(=O)N1CCC([C@@H](C)n2c(C)c(C(=O)NCc3c(OC)cc(C)[nH]c3=O)c3ccccc32)CC1	1.07	1.05

SMILES	PER2::LUC luminescence (time after treatment 24 h)	PER2::LUC luminescence (time after treatment 30 h)
COc1cc2ncnc(Nc3cc(Br)c(O)c(Br)c3)c2cc1OC	0.968	0.571
Fc1ccc(-c2cncc(CN3CCN(c4cccc5c4OCCO5)CC3)c2)cc1	1.04	1.05
CCCCC[C@H](O)CC(=O)CCc1ccc(O)c(OC)c1	1.14	0.963
CO[C@H]1C[C@@H]2CC[C@@H](C)[C@@](O)(O2)C(=O)C(=O)N2CCCC[C@H]2C(=O)O[C@H]([C@H](C)C[C@@H]2CC[C@@H](OP(C)(C)=O)[C@H](OC)C2)CC(=O)[C@H](C)/C=C(\C)[C@@H](O)[C@@H](OC)C(=O)[C@H](C)C[C@H](C)/C=C/C=C/C=C/1C	0.516	0.54
Cc1cc(O)cc(=O)o1	0.961	0.977
Nc1ncnc2c1c(-c1cccc(OCc3ccccc3)c1)cn2C1CC(CN2CCCC2)C1 (stereo unspecified)	0.528	0.474
O=C(Nc1cccc(Cl)c1)Nc1ncc(CCNc2ncnc3ccsc23)s1	0.711	0.641
c1ccc(Cc2nc3ccccc3[nH]2)cc1	1.17	0.971
CCc1c(C(=O)NCCc2ccc(N3CCCCC3)cc2)[nH]c2ccc(Cl)cc12	1.02	1.06
NC1(C(=O)O)CCc2cc(P(=O)(O)O)ccc21 (racemic)	1.03	1.01
Cc1ccc(NC(=O)Nc2cc(-c3ccccc3-c3nn[nH]n3)ccc2N(CC(C)C)CC(C)C)cc1	0.966	0.93
CC(C)[C@@H]1CC[C@@H](C)C[C@H]1OC(=O)c1ccccc1	1.05	1.05
S=P(N1CC1)(N1CC1)N1CC1	1.09 and 0.575	1.02 and 0.928
CCCS(=O)(=O)Nc1ccc(F)c(C(=O)c2c[nH]c3ncc(Cl)cc23)c1F	1.09	1.06
CCN1CCCC1CNC(=O)c1cc(S(=O)(=O)CC)c(N)cc1OC (stereo unspecified)	1.06 and 0.919	1.02 and 0.946
Nc1nc(N)nc(-c2cc(Cl)ccc2Cl)n1	1 and 0.992	1.02 and 1
CNC(=O)CN1CCC(Oc2cc3c(Nc4cccc(Cl)c4F)ncnc3cc2OC)CC1	0.899	0.828
CC1(C)S[C@@H]2[C@H](/N=C/N3CCCCCC3)C(=O)N2[C@H]1C(=O)O	0.917	0.879
O=C(NCC1CCCCN1)c1cc(OCC(F)(F)F)ccc1OCC(F)(F)F (stereo unspecified)	0.965	0.73
CC1CCc2cc(F)cc3c(=O)c(C(=O)O)cn1c23 (stereo unspecified)	0.93	0.807
COc1cc2c(cc1OC)-c1c(oc3cc(O)cc(O)c3c1=O)CO2	0.992	0.945

SMILES	PER2::LUC luminescence (time after treatment 24 h)	PER2::LUC luminescence (time after treatment 30 h)
CCOC(=O)c1cn(-c2c(F)c(F)c(C#N)c(F)c2F)c2c(F)c(F)c(F)cc2c1=O	1.08	1.19
CCCCOc1ccc(OCCCN2CCOCC2)cc1	1.12	1.18
C[C@@H](O)[C@H]1C(=O)N2C(C(=O)OCOC(=O)C(C)(C)C)=C(SC3CN(C4=NCCS4)C3)[C@H](C)[C@H]12	1.04	0.954
COc1ccc(-n2nc(C(N)=O)c3c2C(=O)N(c2ccc(N4CCCCC4=O)cc2)CC3)cc1	1.1	1.12
COc1ccc(C(C)=O)c(O)c1	0.967	0.936
COC(=O)[C@@H]1OC(=O)C2OC23[C@@]1(C)CCC1[C@]2(C)C(C[C@@H](O)[C@]13C)C(C)(C)[C@H](OC(C)=O)C[C@@H]2OC(C)=O (stereo partly specified)	0.961	0.952
COc1cc(-c2nc3ccccc3s2)ccc1O	1.37	1.5
COc1ccc(CCCOC(Cn2ccnc2)c2ccc(OC)cc2)cc1 (stereo unspecified)	0.798 and 0.555	0.782 and 0.601
CC(=O)Oc1cccc(C(=O)O)c1OC(C)=O	1.02	1.07
COc1c(O)cc2c(c1O)[C@@H]1O[C@H](CO)[C@@H](O)[C@H](O)[C@H]1OC2=O	1.22 and 1.09	0.916 and 1.05
CC(C)[C@H]1CC[C@H](C(=O)N[C@H](Cc2ccccc2)C(=O)O)CC1	1.03	1
Nc1cccc(-c2cc3c(Oc4cccc(O)c4)ncnc3[nH]2)c1	0.539	0.47
NC(=O)C[n+]1cccc(C(=O)O)c1	1.18	1.08
COc1ccccc1OCCNCC(O)COc1cccc2[nH]c3ccccc3c12 (stereo unspecified)	0.663 and 0.591	0.679 and 0.605
CC(C)c1nc(CN(C)C(=O)N[C@H](C(=O)N[C@@H](Cc2ccccc2)C[C@H](O)[C@H](Cc2ccccc2)NC(=O)OCc2cncs2)C(C)C)cs1	0.937	0.862
CCCOC(=O)c1c(-c2ccccc2)nc(CC)c(C(=O)SCC)c1CCC	1.06	0.796
CCC(CC)[C@H](NC(C)=O)[C@@H]1[C@H](O)[C@@H](C(=O)O)C[C@H]1NC(=N)N	0.941	0.985
N[C@@H](C(=O)O)c1ccc(O)c(C(=O)O)c1	1.12	1
CCn1cc(C(=O)O)c(=O)c2cc(F)c(N3CCNCC3)cc21	0.839	0.791
Cc1cc(Cc2cc(C)cc(C(C)(C)C)c2O)c(O)c(C(C)(C)C)c1	0.949	0.925
CN(C)c1nc(N)c(C(=O)NC(=N)N)nc1Cl	1.04	1.12

SMILES	PER2::LUC luminescence (time after treatment 24 h)	PER2::LUC luminescence (time after treatment 30 h)
c1ccc(N2CCN(CCCOc3ccc4c(c3)OCO4)CC2)cc1	0.829	0.83
O=c1c(O)c(-c2ccc(O)c(O)c2)oc2c(O[C@@H]3O[C@H](CO)[C@@H](O)[C@H](O)[C@H]3O)c(O)cc(O)c12	0.934	0.879
CC1(C)S[C@@H]2[C@H](N3C(=O)[C@@H](c4ccccc4)NC3(C)C)C(=O)N2[C@H]1C(=O)O	1.18	0.92
CCOC(=O)C1=C(C)NC(C)=C(C(=O)OC)C1c1cccc([N+](=O)[O-])c1 (stereo unspecified)	1.06 and 0.626	1.37 and 0.715
CC(=O)O[C@H]1C[C@@H](OC(C)=O)C(C)(C)C2CC(=O)[C@]3(C)C(CC[C@@]4(C)[C@H](C(=O)O)OC(=O)C5OC543)[C@]21C (stereo partly specified)	1.05	1.02
CCCCCCCCCCCCCCCCC(C(=O)O)C(O)(CC(=O)O)C(=O)O (stereo unspecified)	0.989	0.975
Cc1nc2c(OCc3ccccc3)cccn2c1CC#N	0.965	0.778
N[C@H](C(=O)O)[C@H](Cc1ccccc1)C(=O)O	0.943	0.916
O=c1oc2ccc(O)cc2c2c1NCCC2	0.764	1.05
CN(C)[C@@H]1CCc2[nH]c3ccc(NC(=O)c4ccc(F)cc4)cc3c2C1	0.892	0.939
CCOc1cc(N2CCC(O)CC2)ccc1Nc1ncc2c(n1)N(C)c1ccccc1C(=O)N2C	0.29	0.332
Fc1ccc2[nH]ccc2c1-c1nc(N2CCOCC2)c2sc(CN3CCN(CC4CC4)CC3)cc2n1	0.63	0.606
C=C1[C@H]2CC[C@@]3(C)[C@H](c4ccoc4)OC(=O)C[C@]13O[C@H]1C[C@H](O)C(C)(C)[C@H](CC(=O)OC)[C@]12C	1.01	1.02
CC(CN1c2ccccc2Sc2ccccc21)N(C)C (stereo unspecified)	0.859 and 0.812	0.787 and 0.681
Cc1ccc(NC(=O)Nc2cc(C(F)(F)F)ccc2F)cc1Nc1ccc2c(c1)NC(=O)/C2=C\c1ccc[nH]1	0.837	1.16
CNC(=O)c1ccccc1Sc1ccc2c(/C=C/c3ccccn3)n[nH]c2c1	1.07	0.982
NS(=O)(=O)c1cc2c(cc1C(F)(F)F)NC(Cc1ccccc1)NS2(=O)=O (stereo unspecified)	0.938	1.08
O=C(CCCCCCCCCCCCC1CCCC1)Nc1ccc(S(=O)(=O)c2ccc(NC(=O)CCCCCCCCCCCCC3CCCC3)cc2)cc1	1.06	1.02
CNC(=O)c1ccc(N2C(=S)N(c3cnc(C#N)c(C(F)(F)F)c3)C(=O)C23CCC3)cc1F	1.3	1.16
CCCCC[C@H](O)/C=C/[C@@H]1[C@@H](C/C=C\CCCC(=O)O)[C@H](O)C[C@H]1O	1.1	1.1
